Measured values as given in PubChem BioAssay AID1508624 (National Center for Advancing Translational Sciences (NCATS), 2021).
Screen size: about 48,000 compounds; about 120 (0.25%) were called active. Inconclusive results (about 4%) are left out. Calls come from the whole dose curve; as a rule, active = well fitted activation curve with a large enough effect; inconclusive = small, poorly fitted or top-dose-only effect, or another doubt; inactive = no such curve, though single readings can be large or run the other way. The list shows a part of the results.

Assay: Primary qHTS for Identification of Small Molecule Activators of Huntingtin-Antisense Promoter Activity; note: nearly all actives have a fitted effect of over 55% in size
Conditions: HEK293 HTT-AS promoter firefly luciferase reporter (activity 0% = vehicle and -100% = no light), 24 h; series mostly up to 57.5 µM; activity change, positive = activation: at the top concentration
Procedure, shortened: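 Firefly luciferase signal from promoter-reporter HEK293 cells was scaled between vehicle (0%) and zero RLU (-100%). Compounds were tested at final concentrations of up to 57.5 uM over 24 h at 37 degrees C. PTC124 at 50 uM final served as control inhibitor.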

SMILES	activity change, positive = activation
O=C(NCc1ccccc1Cl)c1cnc(N2CCOCC2)c2ccccc12	inactive: -9.08%
Cc1ccc(-c2cc(-c3coc4ccc(Cl)cc4c3=O)c3c(n2)-c2ccccc2OC3)cc1	inactive: -10.5%
CC(C)C(=O)Oc1ccc(CO)cc1[C@H](CCN(C(C)C)C(C)C)c1ccccc1	inactive: -10.9%
Cc1ccc2cccc(NC(=O)c3cccc4c(Cl)cccc34)c2n1	inactive: -12.9%
O=C(C1CCC(Cn2c(=O)c3sccc3n(Cc3ccccc3)c2=O)CC1)N1CCCCC1 (centres undefined)	inactive: -21.7%
Cc1ccc(C)c(N2CCN(C(=O)CCNS(=O)(=O)c3ccc4c(c3)CCN4C(=O)C3CC3)CC2)c1	inactive: -44.7%
COc1ccc(OC)c(NC(=O)CC2C(=O)NCCN2C(=O)C(F)(F)F)c1 (centres undefined)	inactive: -2.1%
CCOc1ccc(NC(=O)CCc2nc3cccnc3n2-c2ccccc2)cc1	inactive: -16.6%
CCOC(=O)c1ccc(NC(=O)C(Cc2ccccc2)N2Cc3ccccc3C2=O)cc1 (centres undefined)	inactive: 3.82%
Cc1ccc(-c2nn3c(=O)cc(CN4CCN(C(=O)/C=C/c5ccccc5)CC4)nc3s2)cc1	inactive: -9.66%
CCn1c(=O)c2sccc2n2c(CCCC(=O)N3CCN(c4cccc(Cl)c4)CC3)nnc12	inactive: -8.18%
CCc1ccc(-c2cn3c(n2)sc2cc(C(=O)NCCC4=CCCCC4)ccc23)cc1	inactive: 4.11%
CCOC(=O)c1ccc(NC(=O)CSc2cn(CC(=O)N3CCCC3)c3ccccc23)cc1	inactive: -22.7%
CCCOc1ccc(C(=O)Nc2ccc3oc(-c4cccc(Cl)c4Cl)nc3c2)cc1	inactive: -11.4%
COC(=O)c1ccc2c(c1)N(CC(=O)Nc1ccc(OC)c(Cl)c1)C(=O)c1ccccc1S2	inactive: -12.1%
Cc1ccc(-n2nc3c(N4CCCC(C(=O)NCc5ccc(Cl)cc5)C4)nnc(C)c3c2C)cc1 (centres undefined)	inactive: -3.24%
O=C(CCS(=O)(=O)c1nc(-c2cccs2)cc(C(F)(F)F)n1)Nc1cc(Br)ccc1O	inactive: -93.2%
CC(C)c1ccc(NC(=O)Cn2cc(S(=O)(=O)Cc3cccc(Cl)c3)c3ccccc32)cc1	inactive: -43.2%
COc1ccc(C(=O)Nc2nc3n(n2)C(c2ccccc2)C=C(c2ccccc2)N3)cc1 (centres undefined)	inactive: -18.4%
Cc1ccc(NC(=O)Cn2c(=O)n(Cc3nc(C)no3)c(=O)c3cc4c(cc32)OCO4)c(C)c1	inactive: -9.55%
N#Cc1nc(COc2cccc(Cl)c2)oc1NCCc1ccccc1	inactive: -0.217%
CC(C)c1ccc(NC(=O)CSc2nc(=O)n(Cc3ccccn3)c3c2CCC3)cc1	inactive: -36%
CCOc1ccccc1C(=O)N(Cc1cc(OC)c(OC)c(OC)c1)c1ccccn1	inactive: -6.98%
CCCn1c(SCc2nc(-c3ccccc3OCC)no2)nnc1-c1ccc(Cl)cc1	inactive: -40.2%

SMILES	activity change, positive = activation
COc1cc2c(cc1OC)n(CC(=O)c1cccc(Cl)c1)c(=O)n1nc(CCn3nc(C)cc3C)nc21	inactive: -15.9%
Cc1ccc(Nc2sc(C(=O)c3ccccc3)c(N)c2C(=O)Nc2ccc(Cl)cc2)cc1	inactive: -35.7%
CCOCCCNC(=O)c1cc(Sc2cccc(Cl)c2)nc2ccccc12	inactive: -18.5%
O=C(CCN1C(=O)c2ccccc2Sc2ncccc21)Nc1ccc(F)cc1F	inactive: -15.2%
Cc1ccccc1C(=O)Nc1sc2c(c1C(=O)N1CCCCC1)CCC(C)C2 (centres undefined)	inactive: -26.2%
COc1cccc(C(=O)N2c3ccc(C)cc3C(C)(c3ccccc3)CC2(C)C)c1 (centres undefined)	inactive: -39.9%
COc1ccc(C2NC(=O)NC(C)=C2C(=O)Nc2ccccc2)cc1OC (centres undefined)	inactive: -17.4%
Cc1ccc(CC(=O)Nc2ccc3c(c2)N(C)C(=O)c2ccccc2S3)cc1	inactive: -25.8%
O=C(NCc1cccnc1)C(=O)NCC(c1cccnc1)N1CCN(c2ccc(F)cc2)CC1 (centres undefined)	inactive: -15.2%
CC1CCN(S(=O)(=O)c2ccc3c(c2)c(=O)c(C(=O)NCCc2ccccc2)cn3C)CC1	inactive: 15.1%
CCCCN1C(=O)c2[nH]nc(-c3ccccc3O)c2C1c1ccc(OCc2ccccc2)cc1 (centres undefined)	inactive: -89.8%
COc1ccc(S(=O)(=O)NCCc2csc3nc(-c4cccc(C)c4)nn23)cc1F	inactive: -39.9%
COc1ccccc1CNC(=O)c1c(O)nc2c(C)cccn2c1=O	inactive: -6.42%
COc1ccccc1NC(=O)CSc1nnc(NC(=O)Nc2ccc(C)cc2)s1	inactive: -27.3%
CN(C)CCNC(=O)c1ccc2c(c1)NC(=O)C(CS(=O)(=O)Cc1cccc(Br)c1)N2 (centres undefined)	inactive: -12%
Cc1ccc(S(=O)(=O)N2CCCc3cc(NS(=O)(=O)c4cccc(Cl)c4)ccc32)cc1	inactive: -38.8%
CCc1ccc(NC(=O)C2CCCN2S(=O)(=O)c2ccc3c(c2)n(C)c(=O)c(=O)n3C)cc1 (centres undefined)	inactive: -4.48%
COc1ccccc1CNC(=O)CN(C)c1nn2c(=O)cc(C)nc2s1	inactive: -6.03%
CC(=O)c1ccc(NC(=O)CSc2nnc3ccc(-c4ccc(Br)cc4)nn23)cc1	inactive: 0.099%
COc1ccccc1NC(=O)CCC(=O)N1CC(C)Oc2ccc(C)cc21 (centres undefined)	inactive: -6.87%
Cc1ccc(C(=O)c2c(N)c(C(=O)Nc3ccccc3Cl)c3ccccn23)cc1	inactive: 6.4%
COC(=O)CNC(=O)C1CCN(S(=O)(=O)c2cccc3nsnc23)CC1	inactive: 0.153%
CCOc1ccc(OCC(=O)NCCS(=O)(=O)N2CCN(c3ccccc3F)CC2)cc1	inactive: -8.22%
O=C(CN1C(=O)COc2ccc(Cl)cc21)Nc1cccc(F)c1	inactive: -14.6%

SMILES	activity change, positive = activation
Cc1ccc(CCNC(=O)c2ccc3c(c2)nc2n3CCCCC2)cc1	inactive: -6.16%
Cc1sc2ncn(CC(=O)Nc3cccc(C(F)(F)F)c3)c(=O)c2c1S(=O)(=O)N1CCN(C)CC1	inactive: -4.96%
COc1cc2c(Nc3ccc(Br)cc3F)ncnc2cc1OCC1CCN(C)CC1	inactive
Cc1ccc(-n2c(=O)c3c(cnn3C)n(CC(=O)Nc3ccc(C)cc3C)c2=O)cc1	inactive: -16.3%
CC1=C(C(=O)Nc2ccc(C)cc2C)C(c2ccc([N+](=O)[O-])cc2)n2ncc(C(=O)Nc3ccc(F)cc3)c2N1 (centres undefined)	inactive: -3.54%
CN(c1ccc(F)cc1)S(=O)(=O)N1CCCC(C(=O)NCc2cccc(Br)c2)C1 (centres undefined)	inactive: -34.2%
Cc1c(C(=O)N2CCC(C)CC2)c(S(=O)(=O)NCc2ccc(Cl)cc2)c(C)n1C	inactive: -17%
Cc1ccccc1Cc1c(C)nc2nc(SCC(=O)N(C)c3ccccc3)nn2c1C	inactive: 0.786%
CC(=O)c1ccc(N2CCN(C(=O)CCC(=O)Nc3ccc4nc(N5CCCCC5)cc(C)c4c3)CC2)cc1	inactive: 6.73%
CCc1ccc(OCC(=O)Nc2c(C(=O)c3ccccc3)oc3ccccc23)cc1	inactive: -5.14%
Cc1nc(-c2cccc(S(=O)(=O)N3CCC(C(=O)NCc4ccccc4)CC3)c2)no1	inactive: -25.7%
Cc1cc(=O)n2nc(N3CCC(C(=O)NCc4ccccc4Cl)CC3)sc2n1	inactive: -1.8%
Cc1ccccc1NC(=O)CCc1c(C)nc2c(c1C)c(=O)n(C)c(=O)n2C	inactive: -17.7%
CCCN(C(=O)Cn1cnc2sc(C)c(S(=O)(=O)N3CCN(c4ncccn4)CC3)c2c1=O)c1cccc(C)c1	inactive: -23.8%
COc1ccc(NS(=O)(=O)c2ccc3c(c2)oc(=O)n3C)cc1Cl	inactive: -27.8%
COc1ccc(OC)c(S(=O)(=O)Nc2ccc3[nH]c(=O)[nH]c3c2)c1	inactive: 4.65%
Cc1cccc(CN2C(=O)c3ccccc3S(=O)(=O)c3ccc(C(=O)N4CCCC4)cc32)c1	inactive: -22.2%
Cc1oc(-c2ccccc2Cl)nc1CS(=O)(=O)CC(=O)NC(C)CCc1ccccc1 (centres undefined)	inactive: -31.7%
COc1ccc(C(=O)Nc2nc3nc(C)c(Cl)c(=O)n3[nH]2)cc1	inactive: -5.02%
Cc1ccc2nc(Cl)c3cc(C(=O)NC4CCCCC4)sc3c2c1	inactive: -12.2%
COc1ccc(OC)c(NC(=O)C(NS(=O)(=O)c2ccc3c(c2)CCCC(=O)N3)C(C)C)c1 (centres undefined)	inactive: 2.29%
CCOC(=O)c1ccc(NC(=O)c2nsc3ccccc23)cc1	inactive: -49.4%
NS(=O)(=O)c1ccc(Cl)c(S(N)(=O)=O)c1	inactive: -14.7%
Cc1ccc(-c2cnc(NCc3c(F)cccc3Cl)n2C)cc1	inactive: 11%

SMILES	activity change, positive = activation
CCOC(=O)c1cc(S(=O)(=O)N2CCN(c3cc(Cl)ccc3C)CC2)[nH]n1	inactive: -15.5%
CCOc1ccc(NC(=O)c2ccc3c(c2)c(C)c(C)n3Cc2ccc(F)cc2)cc1	inactive: -24.2%
Cc1ccc(NC(=O)Cn2ncc3c4ccccc4n(Cc4ccccc4)c3c2=O)cc1Cl	inactive: -5.98%
Cc1ccc(C)c2sc(N3CCN(C(=O)c4ccco4)CC3)nc12	inactive: -20.7%
Cc1cn2c(=O)c(S(=O)(=O)NC(C)c3ccccc3)c(C)nc2s1 (centres undefined)	inactive: -4.98%
Cc1c(C(=O)NN2CCCCC2)nn(-c2ccc(Cl)cc2Cl)c1-c1ccc(Cl)cc1	inactive
Cc1ccc(S(=O)(=O)c2nnn3c2nc(N2CCCCC2)c2sccc23)cc1	inactive: -1.6%
CCN(CC)S(=O)(=O)c1ccc(NC(=O)[C@H](CCSC)N2Cc3ccccc3C2=O)cc1	inactive: -8.21%
CCn1ccc2cc(S(=O)(=O)N3CCCN(C(=O)Nc4ccc(C)cc4)CC3)ccc21	inactive: -12.5%
Cc1cc(C)cc(N(C)S(=O)(=O)c2nnc(NC(=O)COc3ccc(Cl)cc3)s2)c1	inactive: -24.1%
CC(=O)c1cccc(NC(=O)CN2C(=O)CN(C)C(=O)c3ccccc32)c1	inactive: -15.9%
CCOc1ccc(Cn2c(CNS(=O)(=O)c3cccs3)nc3cccnc32)cc1	inactive: -21.2%
NC(=O)Cn1c(=O)n(-c2ccc(F)c(Cl)c2)c(=O)c2sc3ccccc3c21	inactive: -16.9%
Cc1ccc(N2CCN(c3cc(C)nc4c(-c5ccc(Cl)cc5)c(C)nn34)CC2C)cc1 (centres undefined)	inactive: -10.7%
CCc1nc(SCc2cc(=O)c3cc(F)ccc3[nH]2)n[nH]1	inactive: -8.28%
CC(C)c1ccc(N2C(=O)CSC23C(=O)N(Cc2ccccc2F)c2ccccc23)cc1 (centres undefined)	inactive: 0.511%
Cc1ccc(NC(=O)N2CCC(CN3CCCCCC3)CC2)c(Cl)c1	inactive: 10.4%
Cc1nc(-c2ccc(S(=O)(=O)Nc3ccc(OC(F)(F)F)cc3)cc2)co1	inactive: -31.4%
CCCNC(=O)c1c(NC(=O)c2ccccc2F)sc2c1CCCCC2	inactive: -0.967%
Cc1cccc(C(=O)OCc2cc(=O)n3nc(C4CC4)sc3n2)c1	inactive: 2.42%
Cc1ccc(-c2nc(C(=O)Nc3cccc(C#N)c3)c3n2CCCCC3)cc1	inactive: -35.8%
CC(C)Oc1ccc(CNS(=O)(=O)c2csc(C(N)=O)c2)cc1	inactive: -22.4%
